Tested on: influenza virus Hubei
Experiment: microbe, parasite or virus in culture
Assay type: cell-based
Settings: unidentified influenza virus, MDCK, 48 h, read-out: NA_Hubei EC50 (μM)

SMILES: O=C1c2c(O)c(=O)cnn2C(C(c2ccccc2)c2ccccc2)C2OCCCN12 (single isomer, unassigned) [Example 19B, 12-benzhydryl-7-hydroxy-3,4,12,12a-tetrahydro-2H-pyridazino[1′,6′:4,5]pyrazino[2,1-b][1,3]oxazine-6,8-dione]
- EC50: 0.49 µM

SMILES: O=C1c2c(O)c(=O)cnn2C(C(c2ccccc2)c2ccccc2)N2CCCCN12 (stereo not shown) [Example 1, 12-benzhydryl-4-hydroxy-7,8,9,10-tetrahydro-12H-dipyridazino[1,2-a:1′,6′-d][1,2,4]triazine-3,5-dione]
- EC50: 0.61 µM

SMILES: O=C1c2c(O)c(=O)cnn2C(C(c2cccc(F)c2)c2cccc(F)c2)N2CCCCN12 (stereo not shown) [Example 2, 12-(bis(3-fluorophenyl)methyl)-4-hydroxy-7,8,9,10-tetrahydro-12H-dipyridazino[1,2-a: 1′,6′-d][1,2,4]triazine-3,5-dione]
- EC50: 0.27 µM

SMILES: O=C1c2c(O)c(=O)cnn2C(C(c2ccc(Cl)cc2)c2ccc(Cl)cc2)N2CCCCN12 (stereo not shown) [Example 3, 12-(bis(4-chlorophenyl)methyl)-4-hydroxy-7,8,9,10-tetrahydro-12H-dipyridazino[1,2-a:1′,6′-d][1,2,4]triazine-3,5-dione]
- EC50: 0.57 µM

SMILES: O=C1c2c(O)c(=O)cnn2C(C(c2cccc(Cl)c2)c2cccc(Cl)c2)N2CCCCN12 (stereo not shown) [Example 4, 12-(bis(3-chlorophenyl)methyl)-4-hydroxy-7,8,9,10-tetrahydro-12H-dipyridazino[1,2-a:1′,6′-d][1,2,4]triazine-3,5-dione]
- EC50: 0.15 µM

SMILES: O=C1c2c(O)c(=O)cnn2C(C(c2ccc(F)cc2)c2ccc(F)cc2)N2CCCCN12 (stereo not shown) [Example 5, 12-(bis(4-fluorophenyl)methyl)-4-hydroxy-7,8,9,10-tetrahydro-12H-dipyridazino[1,2-a: 1′,6′-d][1,2,4]triazine-3,5-dione]
- EC50: 0.27 µM

SMILES: O=C1c2c(O)c(=O)cnn2C(C(c2ccccc2)c2ccccc2)N2CCCCCN12 (stereo not shown) [Example 6, 13-benzhydryl-4-hydroxy-8,9,10,11-tetrahydro-7H,13H-pyridazino[1′,6′:4,5][1,2,4]triazino[1,2-a][1,2]diazepine-3,5-dione]
- EC50: 0.77 µM

SMILES: O=C1c2c(O)c(=O)cnn2C(C(c2cccc(F)c2)c2cccc(F)c2)N2CCCCCN12 (stereo not shown) [Example 7, 13-(bis(3-fluorophenyl)methyl)-4-hydroxy-8,9,10,11-tetrahydro-7H,13H-pyridazino[1′,6′:4,5][1,2,4]triazino[1,2-a][1,2]diazepine-3,5-dione]
- EC50: 0.42 µM

SMILES: O=C1c2c(O)c(=O)cnn2[C@H](C(c2cccc(F)c2)c2cccc(F)c2)N2CCCCN12 [Example 8, (R)-12-(bis(3-fluorophenyl)methyl)-4-hydroxy-7,8,9,10-tetrahydro-12H-dipyridazino[1,2-a:1′,6′-d][1,2,4]triazine-3,5-dione]
- EC50: 0.66 µM

SMILES: O=C1c2c(O)c(=O)cnn2[C@@H](C(c2cccc(F)c2)c2cccc(F)c2)N2CCCCN12 [Example 9, (S)-12-(bis(3-fluorophenyl)methyl)-4-hydroxy-7,8,9,10-tetrahydro-12H-dipyridazino[1,2-a:1′,6′-d][1,2,4]triazine-3,5-dione]
- EC50: 0.057 µM

SMILES: O=C1c2c(O)c(=O)cnn2[C@@H](C(c2ccccc2)c2ccccc2)[C@H]2CCCN12 [Example 10, (9aR,10S)-10-benzhydryl-4-hydroxy-8,9,9a,10-tetrahydro-7H-pyrrolo[1′,2′:4,5]pyrazino[1,2-b]pyridazine-3,5-dione]
- EC50: 0.082 µM

SMILES: O=C1c2c(O)c(=O)cnn2[C@H](C(c2ccccc2)c2ccccc2)[C@H]2CCCN12 [Example 11, (9aR,10R)-10-benzhydryl-4-hydroxy-8,9,9a,10-tetrahydro-7H-pyrrolo[1′,2′:4,5]pyrazino[1,2-b]pyridazine-3,5-dione]
- EC50: 1.6 µM

SMILES: O=C1c2c(O)c(=O)cnn2[C@H](C(c2ccccc2)c2ccccc2)[C@@H]2CCCN12 [Example 12, (9aS,10R)-10-benzhydryl-4-hydroxy-8,9,9a,10-tetrahydro-7H-pyrrolo[1′,2′:4,5]pyrazino[1,2-b]pyridazine-3,5-dione]
- EC50: > 50 µM

SMILES: O=C1c2c(O)c(=O)cnn2[C@@H](C(c2ccccc2)c2ccccc2)[C@@H]2CCCN12 [Example 13, (9aS,10S)-10-benzhydryl-4-hydroxy-8,9,9a,10-tetrahydro-7H-pyrrolo[1′,2′:4,5]pyrazino[1,2-b]pyridazine-3,5-dione]
- EC50: 0.34 µM

SMILES: O=C1c2c(O)c(=O)cnn2[C@@H]([C@H](c2ccccc2)c2cccc(F)c2)[C@H]2CCCN12 [Example 14, (9aR,10S)-10-((R)-(3-fluorophenyl)(phenyl)methyl)-4-hydroxy-8,9,9a,10-tetrahydro-7H-pyrrolo[1′,2′:4,5]pyrazino[1,2-b]pyridazine-3,5-dione]
- EC50: 0.092 µM

SMILES: O=C1c2c(O)c(=O)cnn2[C@H](C(c2cccc(F)c2)c2cccc(F)c2)[C@H]2CCCN12 [Example 15, (9aR,10R)-10-(bis(3-fluorophenyl)methyl)-4-hydroxy-8,9,9a,10-tetrahydro-7H-pyrrolo[1′,2′:4,5]pyrazino[1,2-b]pyridazine-3,5-dione]
- EC50: 0.88 µM

SMILES: O=C1c2c(O)c(=O)cnn2[C@@H](C(c2cccc(F)c2)c2cccc(F)c2)[C@H]2CCCN12 [Example 16, (9aR,10S)-10-(bis(3-fluorophenyl)methyl)-4-hydroxy-8,9,9a,10-tetrahydro-7H-pyrrolo[1′,2′:4,5]pyrazino[1,2-b]pyridazine-3,5-dione]
- EC50: 0.067 µM

SMILES: O=C1c2c(O)c(=O)cnn2[C@H]([C@@H](c2ccccc2)c2cccc(Cl)c2)[C@@H]2CCCN12 [Example 17, (9aS,10R)-10-((S)-(3-chlorophenyl)(phenyl)methyl)-4-hydroxy-8,9,9a,10-tetrahydro-7H-pyrrolo[1′,2′:4,5]pyrazino[1,2-b]pyridazine-3,5-dione]
- EC50: 0.29 µM

SMILES: O=C1c2c(O)c(=O)cnn2[C@H](C(c2ccccc2)c2ccccc2)[C@H]2COCCN12 [Example 18, (10aS,11R)-11-benzhydryl-4-hydroxy-7,8,10a,11-tetrahydro-10H-pyridazino[1′,6′:4,5]pyrazino[2,1-c][1,4]oxazine-3,5-dione]
- EC50: 9.1 µM

— US10160764B2 (priority 2016, dated 2018)
